# Results: patent publication US20120107297
# B1: GST-UCP (protein)
# chain: [no letters for about 200 residues]MNSNVENLPPHIIRLVYKEVTTLTADPPDGIKVFPNEEDLTDLQVTIEGPEGTPYAGGLFRMKLLLGKDFPASPPKGYFLTKIFHPNVGANGEICVNVLKRDWTAELGIRHVLLTIKCLLIHPNPESALNEEAGRLLLENYEEYAARARLLTEIHGGAGGPSGRAEAGRALASGTEASSTDPGAPGGPGGAEGPMAKKHAGERDKKLAAKKKTDKKRALRRL
# Molecular target: Flag-VHL, P40337
# Sequence (P40337 whole entry, looked up): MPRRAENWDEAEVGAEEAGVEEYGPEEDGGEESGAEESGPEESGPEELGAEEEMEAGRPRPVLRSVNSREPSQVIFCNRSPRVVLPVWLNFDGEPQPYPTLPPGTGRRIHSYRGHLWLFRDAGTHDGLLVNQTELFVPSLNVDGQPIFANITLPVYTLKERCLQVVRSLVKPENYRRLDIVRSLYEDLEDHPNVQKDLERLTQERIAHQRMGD
protein,measurement,value
B1,"in vitro multiubiquitination of VHL (Western blot, FIG. 17)",wild type UCP induces in vitro multiubiquitination of VHL
same,"in vitro ubiquitination of VHL (E1, His-ubiquitin, Ni-NTA pull-down, Western blot)",in vitro ubiquitination of VHL by UCP was detected
same,"in vitro ubiquitination of VHL (E1, His-ubiquitin, anti-Flag-agarose and Ni-NTA precipitation, Western blot)",VHL ubiquitination directly catalyzed by the wild type UCP was detected in vitro
